{
  "source": "paper PMC4336329",
  "about": "(PLoS ONE, 2015)",
  "note": "In all, about 310,000 compounds went through this assay and about 14,000 (4.5%) showed an effect of 50% or more. Effects have a minus sign here. This is one part of the list.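 Note: peak tail current of the secondary pulse compared with the same well before compound.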",
  "data": [
    {"target": "human ether-à-go-go-related gene (hERG) potassium channel (human, UniProt Q12809)", "sequence (Q12809 whole entry, looked up)": "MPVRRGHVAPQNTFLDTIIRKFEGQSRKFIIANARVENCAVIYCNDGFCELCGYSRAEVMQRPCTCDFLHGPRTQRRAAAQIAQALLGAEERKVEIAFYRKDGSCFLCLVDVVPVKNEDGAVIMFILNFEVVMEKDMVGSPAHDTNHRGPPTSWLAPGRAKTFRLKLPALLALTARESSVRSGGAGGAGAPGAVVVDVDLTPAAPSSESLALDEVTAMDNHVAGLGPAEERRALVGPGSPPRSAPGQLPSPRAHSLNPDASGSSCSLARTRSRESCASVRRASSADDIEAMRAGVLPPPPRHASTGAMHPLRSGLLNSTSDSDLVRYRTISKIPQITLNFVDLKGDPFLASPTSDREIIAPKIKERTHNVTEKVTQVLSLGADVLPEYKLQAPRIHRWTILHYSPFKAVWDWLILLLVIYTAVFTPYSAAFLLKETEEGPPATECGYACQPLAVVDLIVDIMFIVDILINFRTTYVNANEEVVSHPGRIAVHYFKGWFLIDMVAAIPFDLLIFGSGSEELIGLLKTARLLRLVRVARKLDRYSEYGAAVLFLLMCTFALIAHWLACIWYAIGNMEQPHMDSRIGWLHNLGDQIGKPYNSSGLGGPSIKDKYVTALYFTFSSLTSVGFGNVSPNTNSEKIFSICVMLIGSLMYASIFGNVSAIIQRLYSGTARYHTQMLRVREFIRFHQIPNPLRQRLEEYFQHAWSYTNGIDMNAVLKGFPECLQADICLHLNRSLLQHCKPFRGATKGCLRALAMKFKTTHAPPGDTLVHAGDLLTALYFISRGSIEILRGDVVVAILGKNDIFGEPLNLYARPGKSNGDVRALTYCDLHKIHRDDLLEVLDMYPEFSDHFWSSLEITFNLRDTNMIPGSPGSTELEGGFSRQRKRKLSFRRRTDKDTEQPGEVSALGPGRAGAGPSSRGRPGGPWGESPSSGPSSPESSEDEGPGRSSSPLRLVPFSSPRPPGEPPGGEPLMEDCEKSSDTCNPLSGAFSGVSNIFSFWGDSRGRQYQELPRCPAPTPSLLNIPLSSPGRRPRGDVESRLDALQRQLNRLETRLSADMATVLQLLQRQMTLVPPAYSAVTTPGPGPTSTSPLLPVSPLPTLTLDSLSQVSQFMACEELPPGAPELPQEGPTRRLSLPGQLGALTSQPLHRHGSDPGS", "experiment": "primary screen, population patch clamp on CHO cells stably expressing hERG", "units": {"hERG current change (%, negative = inhibition) at 10uM": "%"}, "values": [
      {"smiles": "Cc1oncc1-c1csc(-c2ccccc2Cl)n1", "hERG current change (%, negative = inhibition) at 10uM": 6.99},
      {"smiles": "CCOC(=O)c1cc(S(=O)(=O)N2CC(C)CC(C)C2)cn1C", "note": "(stereo not shown)", "hERG current change (%, negative = inhibition) at 10uM": 9.35},
      {"smiles": "O=C(NNC(=O)c1ccco1)c1cccc([N+](=O)[O-])c1", "hERG current change (%, negative = inhibition) at 10uM": 18.1},
      {"smiles": "COC(=O)c1cc2sccc2n1Cc1nc(-c2cccc(Cl)c2)oc1C", "hERG current change (%, negative = inhibition) at 10uM": 18.9},
      {"smiles": "O=C(CCl)N(C/C=C/c1ccccc1)c1ccc2c(c1)OCCO2", "hERG current change (%, negative = inhibition) at 10uM": 7.03},
      {"smiles": "Cc1ccc2oc(Nc3nc(C)c(C)c(C)n3)nc2c1", "hERG current change (%, negative = inhibition) at 10uM": 10.2},
      {"smiles": "Cc1ccc(C)c(N2CCN(S(=O)(=O)CC34CCC(CC3=O)C4(C)C)CC2)c1", "note": "(stereo not shown)", "hERG current change (%, negative = inhibition) at 10uM": 8.75},
      {"smiles": "C/C(=N\\NC(=O)c1cc(C)nc2ccccc12)c1cccc(Cl)c1", "hERG current change (%, negative = inhibition) at 10uM": 25.1},
      {"smiles": "COc1ccc(N2CCN(C(=O)CCNC(=O)Cn3ccc4ccccc4c3=O)CC2)cc1", "hERG current change (%, negative = inhibition) at 10uM": -8.61},
      {"smiles": "CC(=O)Nc1ccc(C(=O)OCc2ccccc2Cl)cc1", "hERG current change (%, negative = inhibition) at 10uM": 2.42},
      {"smiles": "N#Cc1ccccc1Sc1ccccc1C(=O)NCC(c1ccco1)N1CCCCC1", "note": "(stereo not shown)", "hERG current change (%, negative = inhibition) at 10uM": -19},
      {"smiles": "Cc1nnnn1CC(=O)Nc1ccccc1[N+](=O)[O-]", "hERG current change (%, negative = inhibition) at 10uM": -0.113},
      {"smiles": "CSc1ccc(CN2CCN(C(=O)c3ccncc3)CC2)cc1", "hERG current change (%, negative = inhibition) at 10uM": -21.4},
      {"smiles": "Oc1ccc(Nc2nc(-c3ccccc3F)nc3ccccc23)cc1", "hERG current change (%, negative = inhibition) at 10uM": -1.32},
      {"smiles": "COc1ccc(N(CC(=O)Nc2cc(C)on2)S(=O)(=O)c2ccc(Cl)cc2)cc1", "hERG current change (%, negative = inhibition) at 10uM": 9.89},
      {"smiles": "COC(=O)CCC(=O)Nc1sc(Cc2ccccc2)c(C)c1C(N)=O", "hERG current change (%, negative = inhibition) at 10uM": 10.5},
      {"smiles": "CCOC(=O)N1CCC(=NNc2ccc(S(N)(=O)=O)cc2[N+](=O)[O-])CC1", "hERG current change (%, negative = inhibition) at 10uM": -11.8},
      {"smiles": "CCCCn1c(N)c(Sc2ccccc2)c(=O)[nH]c1=O", "hERG current change (%, negative = inhibition) at 10uM": -6.42},
      {"smiles": "O=C(OC(C(=O)Nc1ccc(Cl)cc1C(F)(F)F)c1ccccc1)c1c(Cl)cccc1Cl", "note": "(stereo not shown)", "hERG current change (%, negative = inhibition) at 10uM": 4.93},
      {"smiles": "COc1cccc(CN(C)C(=O)CNC(=O)c2ccc(-c3ccccc3)cc2)c1OC", "hERG current change (%, negative = inhibition) at 10uM": 11.8},
      {"smiles": "Cc1noc(C)c1CN1C(=O)NC(Cc2ccccc2)(Cc2ccccc2)C1=O", "hERG current change (%, negative = inhibition) at 10uM": 5.69},
      {"smiles": "COc1ccc(N(C(=O)CNC(=O)c2cccs2)C(C(=O)NC2CCCC2)c2cccnc2)cc1", "note": "(stereo not shown)", "hERG current change (%, negative = inhibition) at 10uM": -13},
      {"smiles": "O=C(Cc1ccc(Cl)cc1)Nc1ccc(CN2CCCCC2)cc1", "hERG current change (%, negative = inhibition) at 10uM": -64.9},
      {"smiles": "O=C(O)Cn1c(-c2ccccn2)nc2ccccc21", "hERG current change (%, negative = inhibition) at 10uM": 3.16},
      {"smiles": "CC(C)Nc1nc(NC(C)C)nc(C(N)=O)n1", "hERG current change (%, negative = inhibition) at 10uM": 0.0144},
      {"smiles": "COc1ccc(CNC(=O)N2CCN(c3ccc(F)cc3)CC2)cc1Cl", "hERG current change (%, negative = inhibition) at 10uM": -26.1},
      {"smiles": "OC(Cn1cncn1)c1ccc(Cl)cc1", "note": "(stereo not shown)", "hERG current change (%, negative = inhibition) at 10uM": -1.11},
      {"smiles": "CC1CCc2cc(F)ccc2N1C(=O)c1cc2nc(-c3ccco3)cc(C(F)(F)F)n2n1", "note": "(stereo not shown)", "hERG current change (%, negative = inhibition) at 10uM": 13.4},
      {"smiles": "C=C(C)CN(CC)C(=O)CCc1nnc(CCCc2ccccc2)o1", "hERG current change (%, negative = inhibition) at 10uM": 7.19},
      {"smiles": "CCN(CC)c1ccc(/C=N/NC(=S)NCc2ccccc2)cc1", "hERG current change (%, negative = inhibition) at 10uM": 9.47},
      {"smiles": "CCOc1ccc(S(=O)(=O)Nc2ccccc2C(=O)N/N=C/c2c(OC)ccc3ccccc23)cc1", "hERG current change (%, negative = inhibition) at 10uM": -4.19},
      {"smiles": "COC(=O)c1ccc(C(C(=O)NC2CCCCC2)N(Cc2ccccc2)C(=O)Cc2cccs2)cc1", "note": "(stereo not shown)", "hERG current change (%, negative = inhibition) at 10uM": -6.56},
      {"smiles": "CCOC(=O)c1cccc(NC(=O)N[C@@H](C)C(=O)OC)c1", "hERG current change (%, negative = inhibition) at 10uM": 9.63},
      {"smiles": "CC(=O)Nc1ccc(S(=O)(=O)NCCC(=O)Nc2ccc(C)cn2)cc1", "hERG current change (%, negative = inhibition) at 10uM": 20.6},
      {"smiles": "O=C(CNc1cc(S(=O)(=O)N2CCCC2)ccc1OCC(F)(F)F)Nc1cc(Cl)cc(Cl)c1", "hERG current change (%, negative = inhibition) at 10uM": 6.5},
      {"smiles": "CCN(CC)CCN=CC1=C(O)CNC1=O", "hERG current change (%, negative = inhibition) at 10uM": 5.31},
      {"smiles": "Cc1ccc(Cn2c(NCCc3ccccc3)nc3c2c(=O)n(C)c(=O)n3C)cc1", "hERG current change (%, negative = inhibition) at 10uM": 2.68},
      {"smiles": "CCOc1ccc(C2N(c3ccc(Cl)cc3)C(=O)C3CCCN32)cc1OC", "note": "(stereo not shown)", "hERG current change (%, negative = inhibition) at 10uM": -20},
      {"smiles": "CCS(=O)(=O)Nc1ccc(-c2ccc(NS(=O)(=O)CC)c(OC)c2)cc1OC", "hERG current change (%, negative = inhibition) at 10uM": 0.884},
      {"smiles": "CCC(C)c1ccc(NC(=O)c2cccnc2)cc1", "note": "(stereo not shown)", "hERG current change (%, negative = inhibition) at 10uM": -8.68},
      {"smiles": "CCc1ccc(-c2cc(C)no2)cc1S(=O)(=O)N1CCN(c2ccccn2)CC1", "hERG current change (%, negative = inhibition) at 10uM": 4.29},
      {"smiles": "CCOC(=O)C1=C(C)N=c2s/c(=C\\c3ccc(OCC(=O)O)cc3)c(=O)n2C1c1ccccc1", "note": "(stereo not shown)", "hERG current change (%, negative = inhibition) at 10uM": -3.34},
      {"smiles": "CCOc1c(C)cnc2c1c(=O)n(Cc1c(F)cccc1Cl)c(=O)n2C", "hERG current change (%, negative = inhibition) at 10uM": -7.37},
      {"smiles": "O=C(COc1ccccc1)N1CCN(c2ncnc3c2cnn3-c2ccccc2)CC1", "hERG current change (%, negative = inhibition) at 10uM": -73.6},
      {"smiles": "CC(=O)c1ccc(S(=O)(=O)N2CCC(c3nnc(SCCN4CCCC4)n3C)CC2)cc1", "hERG current change (%, negative = inhibition) at 10uM": 11.6},
      {"smiles": "CCCOc1ccc(N2C(=O)CC(N(CCCO)C(=O)CC)C2=O)cc1", "note": "(stereo not shown)", "hERG current change (%, negative = inhibition) at 10uM": 18.4},
      {"smiles": "COc1ccc(C)cc1NC(=O)Nc1ccncc1", "hERG current change (%, negative = inhibition) at 10uM": 6.61},
      {"smiles": "COC(=O)Cc1c(C)c2ccc(OCC(=O)NCc3ccc4c(c3)OCO4)cc2oc1=O", "hERG current change (%, negative = inhibition) at 10uM": 11.5},
      {"smiles": "COCCN(CC(=O)Nc1cccc(C)c1C)C(=O)CN1C(=O)NC2(CCCCC2)C1=O", "hERG current change (%, negative = inhibition) at 10uM": 13.8},
      {"smiles": "CC(=O)c1c(N2CCCCC2)nc(=S)n(-c2ccccc2)c1C", "hERG current change (%, negative = inhibition) at 10uM": 11.5},
      {"smiles": "CCc1cc(CNC(=O)CC2C(=O)NCCN2Cc2ccc(-c3ccccc3)cc2)on1", "note": "(stereo not shown)", "hERG current change (%, negative = inhibition) at 10uM": -28.4},
      {"smiles": "CCC(C)C(Nc1ccc(C(=O)OC)cc1[N+](=O)[O-])C(=O)OC", "note": "(stereo not shown)", "hERG current change (%, negative = inhibition) at 10uM": -4.92},
      {"smiles": "CN1C(C(=O)NCC2CC2)CC2Cn3c(nc4cc5ccccc5cc43)C21", "note": "(stereo not shown)", "hERG current change (%, negative = inhibition) at 10uM": -21.2},
      {"smiles": "O=C(NCc1cc(C(F)(F)F)cc(C(F)(F)F)c1)C1CC(c2ccccc2F)=NO1", "note": "(stereo not shown)", "hERG current change (%, negative = inhibition) at 10uM": 7.64},
      {"smiles": "CCCCn1c(SCC(=O)NC(C)CC)nc2ccc(N3CCOCC3)cc2c1=O", "note": "(stereo not shown)", "hERG current change (%, negative = inhibition) at 10uM": -12.8}
    ]}
  ]
}
